# Where “and” joins values, the source holds several entries; their conditions need not be identical. Equal values may be shown once. Inconclusive results, whose numbers are uncertain, are shown with a selection of clear calls. For some of these results: Potencies of inconclusive entries are doubtful fits and often do not repeat. For some of these results: A note “side channel” means that the fit belongs to a control or component signal, not to the main read-out. Calls of active or inactive are those of the source. Unless noted, calls follow the shape of the dose curve; as a rule, active = well fitted curve in the direction sought with a large enough effect; inconclusive = small, poorly fitted or top-dose-only effect, or another doubt; inactive = no such curve, though single readings can be large; an effect the other way counts as inactive or inconclusive.
# Columns and labels:
# [1] = biological target: Cytochrome P450 2C9 (Homo sapiens) (UniProt P11712); assay: qHTS Assay for Inhibitors and Substrates of Cytochrome P450 2C9 (AID 883); also: % is scaled to controls: 0 for no effect and ±100 for the full control effect; nearly all actives have a fitted effect of over 60% in size
# Outline: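 Luminescent read-out of deoxyluciferin hydroxylation, normalized to 57uM sulphaphenazole (AC100). Reaction: 10nM enzyme, 100uM Luciferin-H (equal to KM), 25mM KPO4, 10 min compound preincubation, then 60 min with NADPH regeneration, both at 37C.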
# [2] = biological target: Cytochrome P450 2D6 (Homo sapiens) (UniProt P10635); assay: qHTS Assay for Inhibitors and Substrates of Cytochrome P450 2D6 (AID 891);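 also: luciferin methyl ether substrate demethylated by CYP2D6 with NADPH regeneration; top concentration of the series differs between compounds; % is scaled to controls: 0 for no effect and ±100 for the full control effect; nearly all actives have a fitted effect of over 60% in size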
# Outline: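 Human CYP2D6 (5 nM) with 30 uM Luciferin-ME EGE (at Km) in 100 mM KPO4, compound preincubated 10 min, then NADPH regeneration system for 60 min at room temperature. Luciferin read by luminescence; normalized to 1.43 uM quinidine.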
# [3] = system: Zika virus NS2B-NS3 protease (linked construct); assay: 384 well plate NINDS Rhodamine confirmatory qHTS for Zika virus inhibitors (AID 1347164);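 also: fluorescence from protease cleavage of Ac-LKRR-rhodamine 110 substrate; potency is read from the fitted curve at half-maximal effect; nearly all actives have a fitted effect of over 65% in size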
# Outline: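 Enzyme (final 5/30/60 nM) + cpd (DMSO), ~15 min; add Ac-LKRR-Rd 10 microM final; 25 min RT, dark; FI ex 485/em 538; normalized to no-enzyme, no-inhibitor ctrls; aprotinin intraplate ctrl.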
# [4] = HepG2 cells viability qHTS for Zika virus inhibitors (AID 1347168); also: % is scaled to controls: 0 for no effect and ±100 for the full control effect
# Outline: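 Compounds were tested in concentration series on cells grown in DMEM containing 4% FBS. After 24 to 48 hours, cellular ATP was measured by luminescence with CellTiter Glo.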
# [5] = AP1 Signaling Pathway (AID 357; active = well fitted curve in either direction with a large enough effect, not every such curve was filed as active; inconclusive = small, poorly fitted or top-dose-only effect, or another doubt; also: top concentration of the series differs between compounds; % is scaled to controls: 0 for no effect and ±100 for the full control effect); conditions: ME-180 (cervical carcinoma) AP-1-bla reporter, EGF-induced, beta-lactamase ratio, 5 h; at 17.2 µM (top of the series)
# Outline: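 AP-1-bla ME-180 cells with beta-lactamase reporter under AP-1 response element, stimulated with EC50 EGF; compounds titrated, 5 hours at 37 degrees Celsius. CCF4 read at 460/530 nm ratio; positive and negative modulators judged by AC50.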
# [6] = NFAT Signaling Pathway (AID 444; active = well fitted curve in either direction with a large enough effect, not every such curve was filed as active; inconclusive = small, poorly fitted or top-dose-only effect, or another doubt;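 also: carbachol stimulus at about its EC50 of 1 µM final; % is scaled to controls: 0 for no effect and ±100 for the full control effect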); conditions: Jurkat NFAT-bla M1, carbachol, beta-lactamase ratio, 5 h; at 17.2 µM (top of the series)
# Outline: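 Read-out: CCF4 FRET ratio (460 nm/530 nm) after 1 h RT dye loading, used for %activity and AC50 from titration series. Cells: Jurkat NFAT-β-lactamase/M1 line, treated with compound plus 1 uM carbachol for 5 h, 37 °C.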
# [7] = Natriuretic polypeptide receptor (hNpr1) antagonism - Pilot counterscreen GloSensor control cell line (AID 1347045; calls by dose curve; also: potency is read from the fitted curve at half-maximal effect)
# Outline: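 Luminescence was read before and 20 min after adding 50 uM SNP, which stimulates soluble guanylyl cyclase. The HEK293 cells expressing the GloSensor cGMP sensor had been preloaded with 2% reagent for 2 h and treated with compound.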
# [8] = biological target: Tyrosine-protein phosphatase non-receptor type substrate 1 (Homo sapiens) + Leukocyte surface antigen CD47 (Homo sapiens) (UniProt P78324+Q08722); assay: CD47-SIRPalpha protein protein interaction - Alpha assay qHTS validation (AID 1347059);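 also: bead proximity luminescence from CD47 binding SIRPalpha after compound preincubation with SIRPalpha; potency is read from the fitted curve at half-maximal effect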
# Outline: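 Binding is measured by AlphaScreen proximity: Ni-NTA acceptor beads capture His-CD47, streptavidin donor beads capture biotin-SIRPalpha. Each of three additions (SIRPalpha with compound, CD47, beads) incubates 30 min at room temperature protected from light.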
# [9] = biological target: Lysine-specific demethylase 5B (Homo sapiens) (UniProt Q9UGL1); assay: Optimization screen for KDM5B Histone Demethylases FDH coupled qHTS against the LOPAC library (AID 1347166); also: 0% is about no effect
# Outline: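 KDM5BDeltaAP (200nM final) preincubated 10 min with compound, then 12.5uM H3K4Me3, 25uM a-ketoglutarate, ascorbate, Fe(II), NAD+ and FDH added; 50mM HEPES pH 7.5, 0.01% Tween-20. NADH fluorescence (340/450 nm) change over 30 min, room temperature.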
# HB3 = assay: qHTS profiling for inhibitors of Plasmodium falciparum proliferation (AID 504749); also: nearly all actives have a fitted effect of over 60% in size; also: potency is read from the fitted curve at half-maximal effect; conditions: P. falciparum in erythrocytes, SYBR Green DNA, 72 h; series mostly up to 28.7 µM
# Outline: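 Infected RBCs, 0.3% parasitemia/2.5% Hct final; cpd 72 h, 37 C, 5% CO2; lysis buffer with saponin/triton/SYBR Green I, o/n RT dark; FI 485/535; norm. to artemisinin (0.29 uM) and DMSO.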
# [10] = biological target: ATP-dependent 6-phosphofructokinase (Trypanosoma brucei brucei) (UniProt O15648); assay: qHTS Validation Assay to Find Inhibitors of T. brucei phosphofructokinase (AID 485368)
# Outline: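 Compounds (up to 57 uM, titration series) were pinned into substrate buffer, then 1.25 nM PFK added; after 45 min at room temperature, ADP product was quantified by ADP-Glo luminescence and concentration-response curves fitted.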
# [11] = biological target: Voltage-gated inwardly rectifying potassium channel KCNH2 (Homo sapiens) (UniProt Q12809); assay: qHTS Assay for Small Molecule Inhibitors of the Human hERG Channel Activity (AID 588834); conditions: U2OS BacMam hERG, FluxOR thallium flux fluorescence;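 also: potency is read from the fitted curve at half-maximal effect; lower thallium flux fluorescence means stronger hERG block; nearly all actives have a fitted effect of over 50% in size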
# Outline: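 hERG-BacMam U2OS, 2000 cells/well; 0.7X FluxOR loading 1 hr RT dark; cpd ~10 min 37 °C; stim buffer; FDSS fluorescence 2 min @ 1 s; AC50 Hill fit.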
# [12] = qHTS of pediatric cancer cell lines to identify multiple opportunities for drug repurposing: Primary screen for Rh30 cells (AID 1347107); also: % is scaled to controls: 0 for no effect and ±100 for the full control effect; nearly all actives have a fitted effect of over 75% in size
# Outline: (§1)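 Cells (500-1,000/well) rested 5 h, then received compounds for 48 h; metabolically active cells were measured by CellTiter-Glo luminescence. Final concentrations spanned up to 46 µM (MIPE, 11-point) or 0.59 nM-46 µM (NPC, 8-point) in primary screens, 11-point in follow-ups.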
# [13] = qHTS of pediatric cancer cell lines to identify multiple opportunities for drug repurposing: Confirmatory screen for A673 cells (AID 1347110);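 also: potency is read from the fitted curve at half-maximal effect; cells exposed to compound for 48 h before the viability read; nearly all actives have a fitted effect of over 65% in size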
# Outline: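 qHTS titration format: primary MIPE 0.78 nM-46 µM (11 pts), NPC 0.59 nM-46 µM; confirmation 11 pts. 48 h, CTG luminescence.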
# [14] = qHTS of pediatric cancer cell lines to identify multiple opportunities for drug repurposing: Confirmatory screen for DAOY cells (AID 1347114); also: nearly all actives have a fitted effect of over 65% in size; also: potency is read from the fitted curve at half-maximal effect
# Outline: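 Viability measured as metabolically active cells via CellTiter-Glo luminescence following 48 hours of compound exposure, 11-point dilutions in confirmatory testing. 500-1,000 cells/well plated 5 hours before dosing; controls were DMSO and 2.3 µM bortezomib.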
# [15] = qHTS of pediatric cancer cell lines to identify multiple opportunities for drug repurposing: Confirmatory screen for control Hh wild type fibroblast cells (AID 1347121); also: potency is read from the fitted curve at half-maximal effect; nearly all actives have a fitted effect of over 70% in size
# Outline: as §1
# [16] = biological target: Mitogen-activated protein kinase 10 (Mus musculus) (UniProt Q61831); assay: JNK3 AlphaScreen Assay (AID 530; active = well fitted curve in either direction with a large enough effect, not every such curve was filed as active; inconclusive = small, poorly fitted or top-dose-only effect, or another doubt;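 also: kinase came from lysate of stimulated human HepG2 cells; signal reports phosphorylation of biotinylated GST-cJun 1-79 at Ser73 with 10 µM ATP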; also: potency is read from the fitted curve at half-maximal effect; as to activity change, negative = inhibition: % is scaled to controls: 0 for no effect and ±100 for the full control effect); conditions: JNK3 lysate, c-Jun phosphorylation; activity change, negative = inhibition: at 57.1 µM (top of the series)
# Outline: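 Compound titrations were preincubated 15 minutes at room temperature with substrate, antibody and pre-activated JNK3-containing HepG2 lysate. Reactions were started with 10 uM ATP and stopped with EDTA-containing bead buffer for AlphaScreen detection.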
# [17] = biological target: Glucocorticoid receptor (Homo sapiens) (UniProt P04150); assay: qHTS assay for small molecule antagonists of glucocorticoid receptor signaling (AID 588533; active = well fitted inhibition curve with a large enough effect in the signal ratio, with a control signal flat, not every such curve was filed as active; inconclusive = small, poorly fitted or top-dose-only effect, or effect the other way, or a change in a side signal; the % refers to the signal ratio;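 also: cells stimulated with 2 nM dexamethasone as agonist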; also: potency is read from the fitted curve at half-maximal effect); conditions: HeLa MMTV-bla, GRE beta-lactamase ratio, antagonist mode, 18 h; activity change, negative = inhibition: at 76.8 µM (top of the series)
# [18] = biological target: Peroxisome proliferator-activated receptor gamma (Homo sapiens) (UniProt P37231); assay: qHTS assay for small molecule agonists of peroxisome proliferator-activated receptor gamma signaling (AID 588536; active = well fitted curve in the direction sought with a large enough effect in the signal ratio, with a control signal flat, not every such curve was filed as active; inconclusive = small, poorly fitted or top-dose-only effect, or effect the other way, or a change in a side signal; inactive = no such curve, though single readings can be large or run the other way; the % refers to the signal ratio; also: potency is read from the fitted curve at half-maximal effect;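 as to activation: 0% = DMSO basal wells and 100% = rosiglitazone at 2 µM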); conditions: HEK293 PPARg-UAS-bla, beta-lactamase ratio, 16 h; activation: at 76.7 µM (top of the series), percent of rosiglitazone response, DMSO as zero
# Outline: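 PPAR-gamma-UAS-bla HEK293 cells in medium with 1% charcoal/dextran-treated FBS were exposed to compounds for 16 h at 37 C. Beta-lactamase activity was read with CCF4 substrate (405 nm excitation, 460/530 nm emission).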
# [19] = biological target: Vitamin D3 receptor (Homo sapiens) (UniProt P11473); assay: qHTS assay for small molecule agonists of vitamin D receptor signaling (AID 588543; calls by dose curve; also: potency is read from the fitted curve at half-maximal effect)
# Outline: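 Reporter cells (HEK293T, VDR-UAS-bla) were seeded in medium with 2% charcoal-stripped serum and incubated 5 h, then compounds in concentration series were added for 16 h at 37 °C. Stimulation was scaled between DMSO basal and 50 nM 1α,25-dihydroxyvitamin D3.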
# Tags tell the direction and shape of the fitted curve or compound fluorescence and quenching.
# Chain of UniProt O15648 (O15648 whole entry, looked up): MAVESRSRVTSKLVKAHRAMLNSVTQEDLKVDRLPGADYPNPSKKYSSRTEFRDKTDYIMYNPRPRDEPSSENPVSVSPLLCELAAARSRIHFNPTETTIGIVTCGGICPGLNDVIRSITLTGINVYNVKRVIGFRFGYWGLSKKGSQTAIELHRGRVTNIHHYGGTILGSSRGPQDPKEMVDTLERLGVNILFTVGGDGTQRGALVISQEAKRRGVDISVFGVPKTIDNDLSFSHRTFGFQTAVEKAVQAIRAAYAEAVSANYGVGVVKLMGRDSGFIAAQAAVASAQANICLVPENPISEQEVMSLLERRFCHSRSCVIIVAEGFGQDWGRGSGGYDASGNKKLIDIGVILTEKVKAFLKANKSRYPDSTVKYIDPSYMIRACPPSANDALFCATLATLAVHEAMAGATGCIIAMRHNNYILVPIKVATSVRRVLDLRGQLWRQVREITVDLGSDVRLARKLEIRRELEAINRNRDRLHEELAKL
# Chain of UniProt Q12809 (Q12809 whole entry, looked up): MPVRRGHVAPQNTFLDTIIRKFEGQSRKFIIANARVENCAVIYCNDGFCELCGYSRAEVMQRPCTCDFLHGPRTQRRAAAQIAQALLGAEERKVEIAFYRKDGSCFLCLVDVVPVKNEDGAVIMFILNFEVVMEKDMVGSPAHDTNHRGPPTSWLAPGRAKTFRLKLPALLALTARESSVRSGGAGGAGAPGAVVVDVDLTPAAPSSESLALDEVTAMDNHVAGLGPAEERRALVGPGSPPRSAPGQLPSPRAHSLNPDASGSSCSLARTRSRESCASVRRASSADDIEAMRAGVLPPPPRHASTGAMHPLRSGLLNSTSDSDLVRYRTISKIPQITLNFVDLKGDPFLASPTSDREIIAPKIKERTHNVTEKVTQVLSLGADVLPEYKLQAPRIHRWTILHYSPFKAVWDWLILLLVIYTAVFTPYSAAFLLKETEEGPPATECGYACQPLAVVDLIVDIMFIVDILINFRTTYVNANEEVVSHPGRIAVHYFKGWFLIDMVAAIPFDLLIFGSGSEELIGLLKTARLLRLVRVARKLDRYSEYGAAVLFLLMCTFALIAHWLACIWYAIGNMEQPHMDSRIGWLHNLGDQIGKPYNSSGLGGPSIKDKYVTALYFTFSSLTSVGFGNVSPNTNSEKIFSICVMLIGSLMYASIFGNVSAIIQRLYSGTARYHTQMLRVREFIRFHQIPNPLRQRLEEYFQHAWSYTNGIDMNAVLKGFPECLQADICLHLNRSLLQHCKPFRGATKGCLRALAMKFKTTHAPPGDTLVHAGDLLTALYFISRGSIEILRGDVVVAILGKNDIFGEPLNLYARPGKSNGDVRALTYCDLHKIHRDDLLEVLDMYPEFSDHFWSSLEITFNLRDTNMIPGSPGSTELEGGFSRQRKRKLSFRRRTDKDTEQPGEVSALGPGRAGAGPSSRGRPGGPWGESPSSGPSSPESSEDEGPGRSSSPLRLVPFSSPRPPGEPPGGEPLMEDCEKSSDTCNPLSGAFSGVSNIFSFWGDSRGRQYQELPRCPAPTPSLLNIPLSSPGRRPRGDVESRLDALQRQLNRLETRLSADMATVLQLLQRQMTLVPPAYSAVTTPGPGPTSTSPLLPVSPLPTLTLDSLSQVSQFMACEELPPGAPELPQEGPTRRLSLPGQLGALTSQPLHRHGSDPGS
# Chain of UniProt P11712 (P11712 whole entry, looked up): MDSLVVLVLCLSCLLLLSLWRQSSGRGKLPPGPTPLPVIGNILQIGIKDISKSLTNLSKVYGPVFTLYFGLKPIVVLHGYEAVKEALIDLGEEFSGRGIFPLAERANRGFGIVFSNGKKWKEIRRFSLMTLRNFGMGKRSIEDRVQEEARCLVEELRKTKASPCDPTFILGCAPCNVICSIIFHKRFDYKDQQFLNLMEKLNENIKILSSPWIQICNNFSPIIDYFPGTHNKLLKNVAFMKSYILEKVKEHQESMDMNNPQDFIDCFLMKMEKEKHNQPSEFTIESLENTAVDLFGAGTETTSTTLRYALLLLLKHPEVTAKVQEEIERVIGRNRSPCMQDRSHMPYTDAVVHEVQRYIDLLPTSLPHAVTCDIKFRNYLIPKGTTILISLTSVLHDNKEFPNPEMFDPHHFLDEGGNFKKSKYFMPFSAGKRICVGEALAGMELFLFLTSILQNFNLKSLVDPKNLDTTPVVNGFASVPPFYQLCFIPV
# Chain of UniProt P10635 (P10635 whole entry, looked up): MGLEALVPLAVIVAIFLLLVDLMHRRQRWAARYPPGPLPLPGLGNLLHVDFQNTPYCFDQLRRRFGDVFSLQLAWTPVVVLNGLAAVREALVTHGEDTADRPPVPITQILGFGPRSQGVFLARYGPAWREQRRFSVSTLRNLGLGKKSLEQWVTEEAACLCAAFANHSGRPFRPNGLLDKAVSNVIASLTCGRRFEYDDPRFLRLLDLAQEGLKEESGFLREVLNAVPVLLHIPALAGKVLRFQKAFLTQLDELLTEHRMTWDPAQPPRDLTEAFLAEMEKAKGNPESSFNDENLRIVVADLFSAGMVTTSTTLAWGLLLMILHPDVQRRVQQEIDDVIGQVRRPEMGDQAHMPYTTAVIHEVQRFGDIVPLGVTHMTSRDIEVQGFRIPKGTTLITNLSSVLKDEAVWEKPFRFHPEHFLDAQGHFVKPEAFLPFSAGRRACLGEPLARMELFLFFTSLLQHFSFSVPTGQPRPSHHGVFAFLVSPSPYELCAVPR
# Chain of UniProt Q9UGL1 (Q9UGL1 whole entry, looked up): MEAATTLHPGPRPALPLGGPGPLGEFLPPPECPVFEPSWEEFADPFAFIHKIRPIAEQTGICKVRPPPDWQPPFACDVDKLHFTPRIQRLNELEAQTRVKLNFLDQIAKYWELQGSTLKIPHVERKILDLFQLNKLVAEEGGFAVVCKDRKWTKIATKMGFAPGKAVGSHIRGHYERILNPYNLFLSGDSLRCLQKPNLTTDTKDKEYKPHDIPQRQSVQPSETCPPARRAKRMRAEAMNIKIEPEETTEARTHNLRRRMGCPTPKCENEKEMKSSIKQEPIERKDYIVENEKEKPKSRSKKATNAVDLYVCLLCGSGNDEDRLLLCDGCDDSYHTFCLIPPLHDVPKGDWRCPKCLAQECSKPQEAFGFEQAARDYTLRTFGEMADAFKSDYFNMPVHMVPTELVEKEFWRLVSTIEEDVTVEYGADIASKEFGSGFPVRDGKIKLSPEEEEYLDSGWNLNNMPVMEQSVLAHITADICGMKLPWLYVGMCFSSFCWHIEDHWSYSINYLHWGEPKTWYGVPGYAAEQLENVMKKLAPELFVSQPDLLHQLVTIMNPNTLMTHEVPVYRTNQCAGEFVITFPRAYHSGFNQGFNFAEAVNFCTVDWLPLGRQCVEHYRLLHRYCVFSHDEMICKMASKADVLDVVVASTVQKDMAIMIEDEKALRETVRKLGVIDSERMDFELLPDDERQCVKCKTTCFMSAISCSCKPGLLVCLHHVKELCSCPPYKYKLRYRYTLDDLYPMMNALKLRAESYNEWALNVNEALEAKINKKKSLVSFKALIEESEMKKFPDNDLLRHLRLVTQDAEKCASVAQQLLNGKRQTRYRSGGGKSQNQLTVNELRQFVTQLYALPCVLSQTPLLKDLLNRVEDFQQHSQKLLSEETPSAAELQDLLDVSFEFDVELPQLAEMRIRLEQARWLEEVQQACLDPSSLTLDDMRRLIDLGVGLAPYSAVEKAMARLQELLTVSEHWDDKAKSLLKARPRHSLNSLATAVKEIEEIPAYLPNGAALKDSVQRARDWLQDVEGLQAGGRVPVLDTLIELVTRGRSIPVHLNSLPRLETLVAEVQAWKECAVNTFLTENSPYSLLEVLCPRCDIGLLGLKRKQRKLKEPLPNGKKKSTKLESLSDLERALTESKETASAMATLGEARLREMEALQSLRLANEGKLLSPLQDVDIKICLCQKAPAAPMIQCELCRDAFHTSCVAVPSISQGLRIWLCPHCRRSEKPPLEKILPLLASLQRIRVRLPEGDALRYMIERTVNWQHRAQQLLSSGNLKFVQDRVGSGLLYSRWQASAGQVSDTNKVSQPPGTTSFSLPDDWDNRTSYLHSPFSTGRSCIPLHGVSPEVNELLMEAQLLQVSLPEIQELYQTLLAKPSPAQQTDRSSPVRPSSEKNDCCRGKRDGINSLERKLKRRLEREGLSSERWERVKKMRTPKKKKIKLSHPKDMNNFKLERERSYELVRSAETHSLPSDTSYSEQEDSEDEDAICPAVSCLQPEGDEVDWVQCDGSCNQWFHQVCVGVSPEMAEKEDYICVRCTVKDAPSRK
# Chain of UniProt P78324 (P78324 whole entry, looked up): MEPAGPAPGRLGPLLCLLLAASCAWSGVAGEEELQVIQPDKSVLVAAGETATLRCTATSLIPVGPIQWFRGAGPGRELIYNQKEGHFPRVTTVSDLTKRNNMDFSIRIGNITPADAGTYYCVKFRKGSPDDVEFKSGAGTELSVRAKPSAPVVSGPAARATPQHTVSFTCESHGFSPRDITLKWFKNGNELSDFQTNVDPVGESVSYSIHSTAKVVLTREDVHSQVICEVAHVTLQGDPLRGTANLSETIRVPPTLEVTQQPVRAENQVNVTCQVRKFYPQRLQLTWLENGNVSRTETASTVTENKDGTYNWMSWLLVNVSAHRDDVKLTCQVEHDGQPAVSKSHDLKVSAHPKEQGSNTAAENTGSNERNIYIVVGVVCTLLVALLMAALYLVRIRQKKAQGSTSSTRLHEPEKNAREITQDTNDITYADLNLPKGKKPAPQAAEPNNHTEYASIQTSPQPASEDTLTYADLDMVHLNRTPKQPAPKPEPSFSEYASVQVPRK
# Chain of UniProt P78324 (Q08722 whole entry, looked up): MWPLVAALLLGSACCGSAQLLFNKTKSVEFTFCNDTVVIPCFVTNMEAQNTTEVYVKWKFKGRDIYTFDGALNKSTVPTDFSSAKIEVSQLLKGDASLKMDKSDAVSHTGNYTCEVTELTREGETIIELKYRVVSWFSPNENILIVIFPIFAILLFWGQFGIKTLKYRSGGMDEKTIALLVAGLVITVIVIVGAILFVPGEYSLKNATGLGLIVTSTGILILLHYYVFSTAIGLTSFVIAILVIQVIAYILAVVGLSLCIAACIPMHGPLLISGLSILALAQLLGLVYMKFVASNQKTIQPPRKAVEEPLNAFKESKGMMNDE
smiles,measurement,setting,value
COC1=CC(=O)C[C@@H](C)[C@@]12Oc1c(Cl)c(OC)cc(OC)c1C2=O,Potency,[1],inactive
same,Potency,[2],inactive
CC1CCN(C(c2ccc(F)cc2)c2ccc(C(C)C(=O)O)cc2-c2ccc(C(F)(F)F)cc2)CC1 (stereo unspecified),Potency,[3],active: 2.51 µM
same,Potency,[4],inactive
CC[C@]1(O)CC2CN(CCc3c([nH]c4ccccc34)[C@@](C(=O)OC)(c3cc4c(cc3OC)N(C=O)[C@H]3[C@@](O)(C(=O)OC)[C@H](OC(C)=O)[C@]5(CC)C=CCN6CC[C@]43[C@@H]65)C2)C1 (stereo partly specified),"activity change, negative = inhibition",[5],inconclusive: 34.3% [activator]
same,"activity change, negative = inhibition",[6],inconclusive: -53.4% [inhibitor]
O=[N+]([O-])c1ccc(-c2nc(-c3ccc(F)cc3)c(-c3ccncc3)[nH]2)cc1,Potency,[7],"inconclusive: 26.1 µM [inhibitor, single point]"
same,Potency,[8],"inconclusive: 10.4 µM [inhibitor, partial curve]"
same,Potency,[9],inactive
NNC(=O)CP(=O)(c1ccccc1)c1ccccc1,Potency,HB3,inactive
Nc1nc(N)c(N=O)c(OCC2CCCCC2)n1,Potency,[10],inactive
CC(=O)Oc1ccc2c(c1)CC[C@@H]1[C@@H]2CC[C@]2(C)[C@@H](O)CC[C@@H]12,Potency,[11],"inconclusive: 31.6 µM [inhibitor, partial curve, poor fit]"
same,Potency,[12],inactive
same,Potency,[13],"inconclusive: 32.9 µM [cytotoxic, single point]"
same,Potency,[14],"inconclusive: 18.5 µM [cytotoxic, single point]"
CS(=O)(=O)c1ccc([C@@H](O)[C@@H](CF)NC(=O)C(Cl)Cl)cc1,Potency,[12],inactive
C[C@]12CC[C@@H]3c4ccc(O)cc4C[C@@H](CCCCCCCCCS(=O)CCCC(F)(F)C(F)(F)F)[C@H]3[C@@H]1CC[C@@H]2O (stereo partly specified),Potency,[10],inactive
same,Potency,[14],inactive
same,Potency,[15],"inconclusive: 0.233 µM [rising, full curve, poor fit]"
CCCOC(C(=O)OC1CCN(C)CC1)(c1ccccc1)c1ccccc1,Potency,[11],"inconclusive: 15.8 µM [inhibitor, partial curve, poor fit]"
same,Potency,HB3,"inconclusive: 10 µM [inhibitor, single point]"
Cc1ccc(OC[C@H](O)[C@H](C)NC(C)C)c2c1CCC2,Potency,[16],"inactive and inconclusive: 7.94 nM [activator, full curve, poor fit]"
CCCCC(=O)OCC(=O)[C@H]1[C@H](C)C[C@H]2[C@@H]3C[C@H](F)C4=CC(=O)C=C[C@]4(C)[C@@]3(F)[C@@H](O)C[C@@]21C,Potency,[13],"inconclusive: 16.5 µM [cytotoxic, partial curve]"
same,Potency,[15],"inconclusive: 16.5 µM [cytotoxic, partial curve]"
CCCCCCCCCCCCOS(=O)(=O)O,Potency,[16],inactive
same,"activity change, negative = inhibition",[17],inconclusive: 35.3%
same,activation,[18],inconclusive: 9.58%
same,Potency,[19],"inconclusive: 35.5 µM [side channel, rising, partial curve, poor fit]"
O=S(=O)(c1ccccc1)N(CC(F)(F)F)c1ccc(C(O)(C(F)(F)F)C(F)(F)F)cc1,Potency,[17],active: 39.8 µM
same,Potency,[18],"inconclusive: 35.5 µM [inhibitor, partial curve]"
same,Potency,[19],"inconclusive: 35.5 µM [fluorescent, side channel, partial curve, poor fit]"
